# Results taken from the supplement of paper PMC8728848.
# This is one part of the list.
# What was measured:
# Test in all cases: glycan array binding signal (z-score within array); higher = stronger binding
# Conditions in all cases: glycan notation: IUPAC condensed, linker removed
# Fuc(a1-2)Gal = molecular target: Fuc(a1-2)Gal
# Outline: (§1)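 The Consortium for Functional Glycomics database supplied 3228 glycan arrays, of which those lacking an available protein sequence were dropped. The binding signal, a within-array Z-score, was averaged across arrays of the same protein sequence and across linkers. Negative scores can be read as non-binding.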
# Fuc(a1-2)Gal(b1-3)GalNAc = molecular target: Fuc(a1-2)Gal(b1-3)GalNAc
# Outline: as §1
# [1] = molecular target: Fuc(a1-2)Gal(b1-3)GalNAc(a1-3)[Fuc(a1-2)]Gal(b1-4)Glc
# Outline: as §1
# [2] = molecular target: Fuc(a1-2)Gal(b1-3)GalNAc(a1-3)[Fuc(a1-2)]Gal(b1-4)GlcNAc
# Outline: as §1
# [3] = molecular target: Fuc(a1-2)Gal(b1-3)GalNAc(b1-3)Gal
# Outline: as §1
# [4] = molecular target: Fuc(a1-2)Gal(b1-3)GalNAc(b1-3)Gal(a1-4)Gal(b1-4)Glc
# Outline: as §1
# [5] = molecular target: Fuc(a1-2)Gal(b1-3)GalNAc(b1-3)Gal(b1-4)Glc
# Outline: as §1
# [6] = molecular target: Fuc(a1-2)Gal(b1-3)GalNAc(b1-4)[Neu5Ac(a2-3)]Gal(b1-4)Glc
# Outline: as §1
# Fuc(a1-2)Gal(b1-3)GlcNAc = molecular target: Fuc(a1-2)Gal(b1-3)GlcNAc
# Outline: as §1
# [7] = molecular target: Fuc(a1-2)Gal(b1-3)GlcNAc(b1-2)Man(a1-3)[Fuc(a1-2)Gal(b1-3)GlcNAc(b1-2)Man(a1-6)]Man(b1-4)GlcNAc(b1-4)GlcNAc
# Outline: as §1
# [8] = molecular target: Fuc(a1-2)Gal(b1-3)GlcNAc(b1-2)Man(a1-3)[Fuc(a1-2)Gal(b1-3)GlcNAc(b1-2)Man(a1-6)]Man(b1-4)GlcNAc(b1-4)[Fuc(a1-6)]GlcNAc
# Outline: as §1
# [9] = molecular target: Fuc(a1-2)Gal(b1-3)GlcNAc(b1-3)Gal(b1-4)Glc
# Outline: as §1
# [10] = molecular target: Fuc(a1-2)Gal(b1-3)GlcNAc(b1-3)GalNAc
# Outline: as §1
# [11] = molecular target: Fuc(a1-2)Gal(b1-3)GlcNAc(b1-3)[Fuc(a1-2)Gal(b1-3)GlcNAc(b1-6)]GalNAc
# Outline: as §1
# [12] = molecular target: Fuc(a1-2)Gal(b1-3)GlcNAc(b1-3)[Gal(b1-4)GlcNAc(b1-6)]Gal(b1-4)Glc
# Outline: as §1
# [13] = molecular target: Fuc(a1-2)Gal(b1-3)GlcNAc(b1-3)[Neu5Ac(a2-6)Gal(b1-4)GlcNAc(b1-6)]Gal(b1-4)Glc
# Outline: as §1
# [14] = molecular target: Fuc(a1-2)Gal(b1-3)GlcNAc6S
# Outline: as §1
# [15] = molecular target: Fuc(a1-2)Gal(b1-3)[Fuc(a1-4)]GlcNAc
# Outline: as §1
# [16] = molecular target: Fuc(a1-2)Gal(b1-3)[Fuc(a1-4)]GlcNAc(b1-2)Man(a1-3)[Fuc(a1-2)Gal(b1-3)[Fuc(a1-4)]GlcNAc(b1-2)Man(a1-3)]Man(b1-4)GlcNAc(b1-4)GlcNAc
# Outline: as §1
# [17] = molecular target: Fuc(a1-2)Gal(b1-3)[Fuc(a1-4)]GlcNAc(b1-2)Man(a1-3)[Fuc(a1-2)Gal(b1-3)[Fuc(a1-4)]GlcNAc(b1-2)Man(a1-6)]Man(b1-4)GlcNAc(b1-4)[Fuc(a1-6)]GlcNAc(b1-4)[Fuc(a1-6)]GlcNAc
# Outline: as §1
# [18] = molecular target: Fuc(a1-2)Gal(b1-3)[Fuc(a1-4)]GlcNAc(b1-3)[Fuc(a1-3)[Gal(b1-4)]GlcNAc(b1-6)]Gal(b1-4)Glc
# Outline: as §1
# [19] = molecular target: Fuc(a1-2)Gal(b1-3)[Fuc(a1-4)]GlcNAc(b1-3)[Gal(b1-4)GlcNAc(b1-6)]Gal(b1-4)Glc
# Outline: as §1
# [20] = molecular target: Fuc(a1-2)Gal(b1-4)Fuc(a1-3)]GlcNAc(b1-2)Man(a1-3)[Fuc(a1-2)Gal(b1-4)[Fuc(a1-3)]GlcNAc(b1-2)Man(a1-6)]Man(b1-4)GlcNAc(b1-4)GlcNAc
# Outline: as §1
# Fuc(a1-2)Gal(b1-4)Glc = molecular target: Fuc(a1-2)Gal(b1-4)Glc
# Outline: as §1
# Fuc(a1-2)Gal(b1-4)Glc6S = molecular target: Fuc(a1-2)Gal(b1-4)Glc6S
# Outline: as §1
# Fuc(a1-2)Gal(b1-4)GlcNAc = molecular target: Fuc(a1-2)Gal(b1-4)GlcNAc
# Outline: as §1
# [21] = molecular target: Fuc(a1-2)Gal(b1-4)GlcNAc(b1-2)Man
# Outline: as §1
# [22] = molecular target: Fuc(a1-2)Gal(b1-4)GlcNAc(b1-2)Man(a1-3)[Fuc(a1-2)Gal(b1-4)GlcNAc(b1-2)Man(a1-6)]Man(b1-4)GlcNAc(b1-4)GlcNAc
# Outline: as §1
# [23] = molecular target: Fuc(a1-2)Gal(b1-4)GlcNAc(b1-2)Man(a1-3)[Fuc(a1-2)Gal(b1-4)GlcNAc(b1-2)Man(a1-6)]Man(b1-4)GlcNAc(b1-4)[Fuc(a1-6)]GlcNAc
# Outline: as §1
# [24] = molecular target: Fuc(a1-2)Gal(b1-4)GlcNAc(b1-2)[Fuc(a1-2)Gal(b1-4)GlcNAc(b1-4)]Man(a1-3)[Fuc(a1-2)Gal(b1-4)GlcNAc(b1-2)Man(a1-6)]Man(b1-4)GlcNAc(b1-4)GlcNAc
# Outline: as §1
binder,measurement,setting,value
XL-35 (Xenopus laevis) (protein) MLVHILLLLVTGGLSQSCDPVVIVASKNMVKQLDCDKFRNCKEIKDSNEEAQDGIYTLTSPDGISYQTFCDMTTNGGGWTLVASVHENNMAGKCTIGDRWSSQQGNRADYPEGDGNWANYNTFGSAGGATSDDYKNPGYYDIEAYNLGVWHVPNKTPLSVWRNSSLQRYRTTDGILFKHGGNLFSLYRIYPVKYGIGSCSKDSGPTVPVVYDLGSANLTASFYSPGFRSQFTPGYIQFRPINTEKAALALCPGMKMESCNVEHVCIGGGGYFPEADPRQCGDFAAYDFNGYGTKKFNSAGIEITEAAVLLFYL,glycan array binding signal (z-score),Fuc(a1-2)Gal,0.253
same,glycan array binding signal (z-score),Fuc(a1-2)Gal(b1-3)GalNAc,-0.094
same,glycan array binding signal (z-score),[1],0.018
same,glycan array binding signal (z-score),[2],-0.565
same,glycan array binding signal (z-score),[3],-0.134
same,glycan array binding signal (z-score),[4],-0.19
same,glycan array binding signal (z-score),[5],-0.081
same,glycan array binding signal (z-score),[6],-0.108
same,glycan array binding signal (z-score),Fuc(a1-2)Gal(b1-3)GlcNAc,-0.129
same,glycan array binding signal (z-score),[7],0.025
same,glycan array binding signal (z-score),[8],0.565
same,glycan array binding signal (z-score),[9],-0.076
same,glycan array binding signal (z-score),[10],-0.08
same,glycan array binding signal (z-score),[11],0.085
same,glycan array binding signal (z-score),[12],0.054
same,glycan array binding signal (z-score),[13],-0.182
same,glycan array binding signal (z-score),[14],-0.184
same,glycan array binding signal (z-score),[15],0.434
same,glycan array binding signal (z-score),[16],-0.215
same,glycan array binding signal (z-score),[17],0.1
same,glycan array binding signal (z-score),[18],-0.376
same,glycan array binding signal (z-score),[19],-0.02
same,glycan array binding signal (z-score),[20],0.243
same,glycan array binding signal (z-score),Fuc(a1-2)Gal(b1-4)Glc,-0.185
same,glycan array binding signal (z-score),Fuc(a1-2)Gal(b1-4)Glc6S,0.014
same,glycan array binding signal (z-score),Fuc(a1-2)Gal(b1-4)GlcNAc,-0.154
same,glycan array binding signal (z-score),[21],-0.462
same,glycan array binding signal (z-score),[22],0.359
same,glycan array binding signal (z-score),[23],-0.285
same,glycan array binding signal (z-score),[24],0.358
